Reference: article PMC4762780
No constants are given. Whether binding was seen depends on the method and setting. Binding seen in cells or lysates may run through a third protein. Some results given as binding are weak or reduced against the parent protein; the word gives no strength. For part of these data: Where a sequence is shown, tags or fusion partners need not be part of it.

Protein sequences, listed by entry. Tags and fused reporters are not part of them. Lines headed by an entry give the natural chain unless they say otherwise; changes in a name come on top. Chains listed by the source or under a name are the forms on record and can include a tag or linker.
FLAG-tagged WT MEF2C (myocyte enhancer factor 2C) (Q8CFN5-5, form named): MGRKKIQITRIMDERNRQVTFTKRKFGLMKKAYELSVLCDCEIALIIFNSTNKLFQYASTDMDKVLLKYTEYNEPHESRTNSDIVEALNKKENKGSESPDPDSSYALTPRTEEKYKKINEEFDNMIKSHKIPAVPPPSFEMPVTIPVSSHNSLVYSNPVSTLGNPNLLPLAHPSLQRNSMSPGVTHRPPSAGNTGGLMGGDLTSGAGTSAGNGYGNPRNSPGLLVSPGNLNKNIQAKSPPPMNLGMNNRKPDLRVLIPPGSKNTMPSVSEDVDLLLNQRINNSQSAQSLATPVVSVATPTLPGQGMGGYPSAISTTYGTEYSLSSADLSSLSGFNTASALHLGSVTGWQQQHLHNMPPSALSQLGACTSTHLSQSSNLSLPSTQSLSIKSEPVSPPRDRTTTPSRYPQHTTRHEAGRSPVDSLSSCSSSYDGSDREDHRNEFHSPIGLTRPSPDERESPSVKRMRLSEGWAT
UniProt Q02650: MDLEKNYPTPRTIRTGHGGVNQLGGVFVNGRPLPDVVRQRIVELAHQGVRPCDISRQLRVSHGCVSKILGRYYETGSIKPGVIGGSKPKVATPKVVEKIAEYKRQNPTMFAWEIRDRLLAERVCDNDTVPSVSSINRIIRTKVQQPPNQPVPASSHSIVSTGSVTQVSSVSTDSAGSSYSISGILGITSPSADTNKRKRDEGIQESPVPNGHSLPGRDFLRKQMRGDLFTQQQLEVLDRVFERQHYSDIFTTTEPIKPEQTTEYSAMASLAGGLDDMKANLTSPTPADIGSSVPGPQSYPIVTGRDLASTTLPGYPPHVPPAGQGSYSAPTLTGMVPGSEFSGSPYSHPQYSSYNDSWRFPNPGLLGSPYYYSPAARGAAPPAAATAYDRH

Legend:
[1] = target: T1, Myc-tagged EBF1 (early B cell factor-1) (UniProt Q07802); experiment: co-IP; 293T cells co-transfected with FLAG-tagged WT, EED or AAA MEF2C and Myc-tagged EBF1; Myc-IP (EBF1 as bait) blotted with FLAG antibody (S1C Fig)
T1 sequence: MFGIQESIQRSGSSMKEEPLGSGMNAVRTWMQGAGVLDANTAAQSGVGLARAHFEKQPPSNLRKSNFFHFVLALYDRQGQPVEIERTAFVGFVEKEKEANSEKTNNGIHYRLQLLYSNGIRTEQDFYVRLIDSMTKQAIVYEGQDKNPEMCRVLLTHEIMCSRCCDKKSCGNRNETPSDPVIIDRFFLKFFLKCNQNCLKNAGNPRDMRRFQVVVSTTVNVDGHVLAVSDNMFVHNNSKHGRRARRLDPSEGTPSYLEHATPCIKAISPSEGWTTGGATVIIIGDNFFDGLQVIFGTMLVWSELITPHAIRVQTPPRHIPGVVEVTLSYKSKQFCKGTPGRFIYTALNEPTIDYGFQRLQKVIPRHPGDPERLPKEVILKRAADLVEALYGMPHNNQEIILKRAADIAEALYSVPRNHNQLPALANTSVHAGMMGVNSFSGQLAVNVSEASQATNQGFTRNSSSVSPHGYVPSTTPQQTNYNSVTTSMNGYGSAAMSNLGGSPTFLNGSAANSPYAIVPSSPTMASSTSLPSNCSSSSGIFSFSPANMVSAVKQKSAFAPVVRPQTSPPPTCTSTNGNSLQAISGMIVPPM

[2] = target: FLAG-tagged WT MEF2C (myocyte enhancer factor 2C) (UniProt Q8CFN5); experiment: co-IP; 293T cells co-transfected; lysis in 50mM HEPES, 140mM NaCl, 1mM EDTA, 0.5% Triton-X, 0.5% sodium deoxycholate; overnight IP with anti-FLAG M2 (MEF2C as bait); washed with high-salt lysis buffer (500mM NaCl); blotted with anti-Myc or anti-V5; for WT MEF2C and EBF1 also with benzonase treatment, which did not prevent co-IP

For “FLAG-tagged WT MEF2C (myocyte enhancer factor 2C) (from UniProt Q8CFN5-5 1-472)”, the binding [1] was “binds”.

For “Myc-tagged PAX5 (from UniProt Q02650 1-391)”, the binding [2] was “no binding”.

For “Myc-tagged E12 (E2A isoform) (from UniProt E9PWE2 1-653)”, the binding [2] was “no binding”.
